Binding signal data for 54 sequences are collected here from article PMC7819943, “Rice protein-binding microarrays: a tool to detect cis-acting elements near promoter regions in rice”.

Some of the results follow.

This test deals with T1, OsWOX13 (Oryza sativa, UniProt Q5QMM3 1-267).
T1 sequence: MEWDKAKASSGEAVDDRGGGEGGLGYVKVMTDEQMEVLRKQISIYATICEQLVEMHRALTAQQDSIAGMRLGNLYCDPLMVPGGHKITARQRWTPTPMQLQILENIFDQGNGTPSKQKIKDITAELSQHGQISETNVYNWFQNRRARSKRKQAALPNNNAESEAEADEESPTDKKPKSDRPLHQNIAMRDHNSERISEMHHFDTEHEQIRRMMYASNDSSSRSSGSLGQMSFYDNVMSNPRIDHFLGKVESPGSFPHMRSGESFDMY
As to the kind of experiment: protein-binding microarray (RPBM); PBS, 2% BSA, 51.3 ng/ul salmon testes DNA, 50 uM zinc acetate, 200 nM TF, 25 C, 1 h; high values mean tight binding. To be noted: protein: recombinant; tags: N-terminal polyhistidine and DsRed monomer fusion (pET32a); label: CyDye5-dUTP incorporated in the synthesized complementary strand; 3' TTTTT single-stranded linker to array surface; dsDNA, one strand shown. In outline: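 In PBS with 2% BSA, salmon testes DNA and 50 µM zinc acetate, 200 nM protein was incubated on a custom Agilent array at 25 °C for 1 h and then washed off. The array had been made double-stranded by primer extension with Cy5-dUTP and blocked with 2% BSA. The proteins were transcription factors fused N-terminally to polyhistidine and DsRed, expressed in E. coli BL21-CodonPlus and purified on Ni–NTA. The binding signal is per-feature fluorescence intensity (arbitrary units) from an Axon 4000B scanner.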
In the case of “GACAGTAGATAGATCATAGATTAATGGATGATTTTGCGTACGGAGTCACCTAGTGCAG”, the binding signal was 11000 fluorescence intensity (a.u.).

Consider “TATATATATATATATATATATAGACACACACACGCCAATCCGGAGTCACCTAGTGCAG”, for which the binding signal is 27500 fluorescence intensity (a.u.).

For “AAAACTTTACATTATGTAATTAATTAAAATATTTGGTATTCGGAGTCACCTAGTGCAG”, the binding signal is 13800 fluorescence intensity (a.u.).

On to “CTCAAATCTTTGATAGATGGCTTATTTGTATTGACTGGAACGGAGTCACCTAGTGCAG”, for which the binding signal was 11700 fluorescence intensity (a.u.).

For “ACTGACTGCTACGTCTCTGTCTACGTATACCCCAGCCTCCCGGAGTCACCTAGTGCAG”, the binding signal is 15100 fluorescence intensity (a.u.).

Take “TCATAATTGGATGGCATTGTACTGTGATTTGTTTGTGTTGCGGAGTCACCTAGTGCAG”: the binding signal is 49200 fluorescence intensity (a.u.).

“GCTGACAATTAAGCGTCAAAATGAACGTGCGTTGGTGTGTCGGAGTCACCTAGTGCAG”: the binding signal is 6910 fluorescence intensity (a.u.).

For “GTATATACATATAATTGTAATATTACATATGTCACTTTATCGGAGTCACCTAGTGCAG”, the binding signal is 3330 fluorescence intensity (a.u.).

In the case of “TTGCTTAATTTTGGTGAATGTCATCCAGGTGAGGATGCCCCGGAGTCACCTAGTGCAG”, the binding signal is 11200 fluorescence intensity (a.u.).

Take “CAAAATAATATAATTTATAATCTATTTAAGCTCGATTGTGCGGAGTCACCTAGTGCAG”: the binding signal is 25800 fluorescence intensity (a.u.).

For “GTGAATGCATGCATGATTGATTGATCTTTTCTTTTGCGTCCGGAGTCACCTAGTGCAG”, the binding signal is 46300 fluorescence intensity (a.u.).

“CAATATTCTTTGACAGCTTCGATTGACATCTCACCTTATGCGGAGTCACCTAGTGCAG”: the binding signal is 9220 fluorescence intensity (a.u.).

Consider “TTTTAATTAGGTAAGATAAGATGTGATGTGCACTTTAACTCGGAGTCACCTAGTGCAG”, for which the binding signal was 12800 fluorescence intensity (a.u.).

As for “TTAAAATTAAATAACAACCATTTTCAATAGGAAAACGGTGCGGAGTCACCTAGTGCAG”, the binding signal is 6340 fluorescence intensity (a.u.).

For “ACATAAATTTGAGATGTTATTGTAGAATTCAAAACTGTGACGGAGTCACCTAGTGCAG”, the binding signal was 5820 fluorescence intensity (a.u.).

Turning to “CGTGGTACAGTCAAATCACCTTTGACGATTGACTAGAAATCGGAGTCACCTAGTGCAG”, the binding signal is 9670 fluorescence intensity (a.u.).

“ACGTGGGGAGGCTGCCTGCCGCGCGGTGAAGCTTCGGTCACGGAGTCACCTAGTGCAG”: the binding signal is 21600 fluorescence intensity (a.u.).

Turning to “TACAAATTGACTACTAATTTCTCTAGTGGTGTATATTTATCGGAGTCACCTAGTGCAG”, the binding signal was 33200 fluorescence intensity (a.u.).

“TGTGATTATAAAATTTTATGCACGACATTACTACATTTCCCGGAGTCACCTAGTGCAG”: the binding signal is 36400 fluorescence intensity (a.u.).

“AATTAACTAGCTCGACTAATTAATAACGAAGTGATAGAGACGGAGTCACCTAGTGCAG”: the binding signal was 17500 fluorescence intensity (a.u.).

Regarding “AGACAATCTTCTTGACTGATTTTCAATGTGGTAGATACATCGGAGTCACCTAGTGCAG”, the binding signal was 12400 fluorescence intensity (a.u.).

Regarding “CATGATGGGCTTATTGGGCTGGATCAGATCGGATGTCCAGCGGAGTCACCTAGTGCAG”, the binding signal is 10500 fluorescence intensity (a.u.).

Regarding “TTCTGATTGAGTTTATCAGGGCCAACTGCCAAACGGTCAGCGGAGTCACCTAGTGCAG”, the binding signal is 38600 fluorescence intensity (a.u.).

With “AAAATCAAGATTGATGTGGTTTCACCCCAACACAAGAAAACGGAGTCACCTAGTGCAG”, the binding signal is 8050 fluorescence intensity (a.u.).

“TCTACTAATTTAAAGTTGCAGTGTTCCTCCTCCCTCCTACCGGAGTCACCTAGTGCAG”: the binding signal is 10700 fluorescence intensity (a.u.).

Regarding “TATCAATCACAATAATCCAATCAACTTCCCAACCGAAATGCGGAGTCACCTAGTGCAG”, the binding signal was 37500 fluorescence intensity (a.u.).

For the sequence “ATTACATACTAATTACATATGTAAGTGAGGTGTAACTACTCGGAGTCACCTAGTGCAG”, the binding signal was 5970 fluorescence intensity (a.u.).

Take “GGCGCTGCTTCGTGATTGCTTGTCTCGTGTCTGAATCACTCGGAGTCACCTAGTGCAG”: the binding signal was 7190 fluorescence intensity (a.u.).

For “TCCTTAACTGACAATGGCAAGATGGAAAATCCTATGCATGCGGAGTCACCTAGTGCAG”, the binding signal is 35100 fluorescence intensity (a.u.).

“TGATATGCATTAATTGACTTTTGCGTCAATATGACAAGCTCGGAGTCACCTAGTGCAG”: the binding signal was 23800 fluorescence intensity (a.u.).

Take “AATTATTTAATTATAATTTATTTATTTATCATCAAATTTTCGGAGTCACCTAGTGCAG”: the binding signal was 13700 fluorescence intensity (a.u.).

With “AGTAATGTCATTGGCCTATCATATTCTGACTATGTTTTATCGGAGTCACCTAGTGCAG”, the binding signal was 3710 fluorescence intensity (a.u.).

Regarding “GAAGAATTGATACAGGATCGTCGTTTCTTTGCCAGCTGCGCGGAGTCACCTAGTGCAG”, the binding signal is 6260 fluorescence intensity (a.u.).

Turning to “CATTCTTAATAGATAATTTGTTTTATATCCCTCACCGTACCGGAGTCACCTAGTGCAG”, the binding signal is 14900 fluorescence intensity (a.u.).

Take “CACGTTGTACATCAATCAACCATCTTGTAGCAGCTACACGCGGAGTCACCTAGTGCAG”: the binding signal is 12800 fluorescence intensity (a.u.).

As to “ACATAAATTTATAATTCAAATTTTCTCAGGAAAATGGCAACGGAGTCACCTAGTGCAG”, the binding signal is 16600 fluorescence intensity (a.u.).

As for “CCGTTAGTTGTCCATCAACATTGACAGCTGAAAATGCCTTCGGAGTCACCTAGTGCAG”, the binding signal is 5480 fluorescence intensity (a.u.).

With “AGAAAATTTAATCTTAAATATGGACATTACGAATGTACAACGGAGTCACCTAGTGCAG”, the binding signal was 4110 fluorescence intensity (a.u.).

As for “ATAATGATATGTTTCTAATATGATAGAATTTTGTAATGGTCGGAGTCACCTAGTGCAG”, the binding signal was 8260 fluorescence intensity (a.u.).

For “ATCTATAATTACCAAAACTTGATAATGTAACGATGCCTAACGGAGTCACCTAGTGCAG”, the binding signal is 18500 fluorescence intensity (a.u.).

For the sequence “CCAAATTGGCATGGAGGACAACAGGGAAGGCGATGATGAACGGAGTCACCTAGTGCAG”, the binding signal was 19900 fluorescence intensity (a.u.).

Regarding “ATAAATTAAATTTTATTCACTAATAACACATTTTGTCTCACGGAGTCACCTAGTGCAG”, the binding signal is 17900 fluorescence intensity (a.u.).

On to “CTGAAATTGGCCCAGTTTTATTAATGTGGGAGTAGTTTCCCGGAGTCACCTAGTGCAG”, for which the binding signal is 7960 fluorescence intensity (a.u.).

Take “GGAATGTCAATTAAACTCAATGTTTAGATGACAAACGACACGGAGTCACCTAGTGCAG”: the binding signal is 18200 fluorescence intensity (a.u.).

For “CGAGTAGATAGATAGATTGACATACCTGCATAGTCGGAGACGGAGTCACCTAGTGCAG”, the binding signal is 34300 fluorescence intensity (a.u.).

Regarding “CATTAACAGAACATGCCCATAAGCATAACTCAACTTGCTGCGGAGTCACCTAGTGCAG”, the binding signal was 6580 fluorescence intensity (a.u.).

In the case of “CTGTTGAAATTTTGAGCACAAAGGATTCCCTCACATGCAGCGGAGTCACCTAGTGCAG”, the binding signal is 4420 fluorescence intensity (a.u.).

Regarding “ATGAAACTTTTCTATAATTAGTATTTTCATTGTTGTTAGACGGAGTCACCTAGTGCAG”, the binding signal was 9460 fluorescence intensity (a.u.).

For “ACACCAACACAATTAATTAATTAATTAATACAACAAGTAACGGAGTCACCTAGTGCAG”, the binding signal was 23700 fluorescence intensity (a.u.).

As for “TCATGACTCGTAATTTAATCTTGATGTTGAGAGGTGCCTGCGGAGTCACCTAGTGCAG”, the binding signal was 17300 fluorescence intensity (a.u.).

Turning to “ATACATGGCAAATTTAATTAATGCCTTCAATACTTTTATCCGGAGTCACCTAGTGCAG”, the binding signal was 4820 fluorescence intensity (a.u.).

On to “GTAGTTAAATTGTTCAGCCATAATCGACGACAGGCGGAGACGGAGTCACCTAGTGCAG”, for which the binding signal is 3320 fluorescence intensity (a.u.).

With “AAGAAATAGCTAATACTCAATCAATCATGTGCTAATGGACCGGAGTCACCTAGTGCAG”, the binding signal was 10200 fluorescence intensity (a.u.).

As for “ATAAAGACTGTTCAATCATGATGAAGCTTTACGTAAGCGGCGGAGTCACCTAGTGCAG”, the binding signal is 34900 fluorescence intensity (a.u.).
